This list was built around the results that the source calls inconclusive (neither active nor inactive); the mix of calls is not that of the screen. For part of these data: Potencies of inconclusive entries are left out as doubtful fits. Activity calls are given as the source filed them. Unless noted, calls follow the shape of the dose curve; as a rule, active = well fitted curve in the direction sought with a large enough effect; inconclusive = small, poorly fitted or top-dose-only effect, or another doubt; inactive = no such curve, though single readings can be large; an effect the other way counts as inactive or inconclusive.
How the values were obtained:
[1] = biological target: Rap guanine nucleotide exchange factor 3 (Homo sapiens) (UniProt O95398); assay: Confirmatory qHTS for agonist of cAMP-regulated guanine nucleotide exchange factor 3 (EPAC1) (AID 1645881); details: EPAC1 Rap1B BODIPY-GDP exchange fluorescence; activation: at 154 µM (top of the series), 100% = cAMP control response; also: potency is read from the fitted curve at half-maximal effect; nearly all actives have a fitted effect of over 75% in size
Chain of UniProt O95398 (O95398 whole entry, looked up): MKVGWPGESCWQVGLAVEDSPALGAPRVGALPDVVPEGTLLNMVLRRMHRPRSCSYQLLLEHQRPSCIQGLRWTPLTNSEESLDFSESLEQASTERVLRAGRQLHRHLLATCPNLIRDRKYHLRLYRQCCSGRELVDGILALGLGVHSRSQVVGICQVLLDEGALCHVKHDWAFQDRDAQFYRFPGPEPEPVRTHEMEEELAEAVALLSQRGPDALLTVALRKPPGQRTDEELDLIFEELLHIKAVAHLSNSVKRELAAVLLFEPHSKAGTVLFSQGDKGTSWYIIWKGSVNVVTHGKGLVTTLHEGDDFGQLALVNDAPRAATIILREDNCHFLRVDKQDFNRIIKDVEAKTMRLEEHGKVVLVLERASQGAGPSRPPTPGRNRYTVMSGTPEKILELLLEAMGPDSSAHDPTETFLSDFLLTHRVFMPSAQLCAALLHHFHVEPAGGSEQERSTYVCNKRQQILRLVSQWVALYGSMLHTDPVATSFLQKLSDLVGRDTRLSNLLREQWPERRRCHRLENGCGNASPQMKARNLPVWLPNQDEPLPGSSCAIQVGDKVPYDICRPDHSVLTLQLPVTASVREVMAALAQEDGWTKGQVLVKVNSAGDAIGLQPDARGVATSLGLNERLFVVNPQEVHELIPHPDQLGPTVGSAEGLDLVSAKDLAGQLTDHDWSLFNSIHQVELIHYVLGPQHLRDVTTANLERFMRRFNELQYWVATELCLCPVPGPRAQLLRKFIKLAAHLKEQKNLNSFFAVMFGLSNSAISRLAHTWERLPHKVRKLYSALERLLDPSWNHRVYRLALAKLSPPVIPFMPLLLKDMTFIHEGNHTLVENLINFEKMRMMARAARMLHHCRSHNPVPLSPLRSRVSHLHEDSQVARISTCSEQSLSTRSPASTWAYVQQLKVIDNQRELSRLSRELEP

[2] = biological target: Rap guanine nucleotide exchange factor 4 (Homo sapiens) (UniProt Q8WZA2); assay: Confirmatory qHTS for agonist of cAMP-regulated guanine nucleotide exchange factor 4 (EPAC2) (AID 1645884); details: EPAC2 GEF activity, Rap1B-BODIPY-GDP fluorescence; series mostly up to 154 µM;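 also: nucleotide exchange releases bodipy-GDP from Rap1 and this lowers its fluorescence; potency is read from the fitted curve at half-maximal effect; nearly all actives have a fitted effect of over 65% in size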
Chain of UniProt Q8WZA2 (Q8WZA2 whole entry, looked up): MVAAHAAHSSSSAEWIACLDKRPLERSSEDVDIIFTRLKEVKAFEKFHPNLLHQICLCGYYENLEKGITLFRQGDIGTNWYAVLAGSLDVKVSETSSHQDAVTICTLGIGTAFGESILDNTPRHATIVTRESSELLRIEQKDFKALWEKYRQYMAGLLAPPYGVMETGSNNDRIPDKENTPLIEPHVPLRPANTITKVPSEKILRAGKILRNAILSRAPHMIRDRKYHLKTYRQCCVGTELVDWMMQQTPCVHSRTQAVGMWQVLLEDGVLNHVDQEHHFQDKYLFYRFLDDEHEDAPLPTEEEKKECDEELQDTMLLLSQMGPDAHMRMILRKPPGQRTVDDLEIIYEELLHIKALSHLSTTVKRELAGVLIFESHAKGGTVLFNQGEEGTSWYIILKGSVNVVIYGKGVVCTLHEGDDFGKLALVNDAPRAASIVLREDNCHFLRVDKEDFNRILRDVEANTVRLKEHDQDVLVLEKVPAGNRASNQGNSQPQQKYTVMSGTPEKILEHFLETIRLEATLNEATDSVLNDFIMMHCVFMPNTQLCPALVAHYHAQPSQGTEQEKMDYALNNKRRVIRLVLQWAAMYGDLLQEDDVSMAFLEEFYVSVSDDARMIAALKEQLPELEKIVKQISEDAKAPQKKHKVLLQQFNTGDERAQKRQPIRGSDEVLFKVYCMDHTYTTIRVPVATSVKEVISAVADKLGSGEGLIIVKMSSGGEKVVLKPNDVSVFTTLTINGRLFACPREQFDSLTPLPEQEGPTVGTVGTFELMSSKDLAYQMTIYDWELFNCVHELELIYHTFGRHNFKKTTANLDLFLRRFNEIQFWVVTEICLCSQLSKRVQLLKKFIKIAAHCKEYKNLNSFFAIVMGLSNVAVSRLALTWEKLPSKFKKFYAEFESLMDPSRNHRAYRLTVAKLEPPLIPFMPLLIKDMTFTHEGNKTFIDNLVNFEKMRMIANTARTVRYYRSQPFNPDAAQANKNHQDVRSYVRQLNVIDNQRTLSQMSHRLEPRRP

[3] = biological target: Rap guanine nucleotide exchange factor 3 (Homo sapiens) (UniProt O95398); assay: Counterscreen qHTS for agonist of cAMP-regulated guanine nucleotide exchange factor 3 (EPAC1) (AID 1645889); details: EPAC1 Rap1B-BODIPY-GDP exchange, fluorescence; activation: at 154 µM (top of the series) unless noted; also: potency is read from the fitted curve at half-maximal effect; nearly all actives have a fitted effect of over 40% in size
Summary of the method: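 Rap1B–BODIPY-GDP (250 nM) with 50 uM GDP; compounds pin-transferred to 9.74 nM–152 uM final (activator) or from 7.32 nM upwards (inhibitor). Fluorescence Ex/Em 480/540 nm read at 5 and 30 min, then after adding cAMP or buffer, at room temperature.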

[4] = AP1 Signaling Pathway (AID 357; active = well fitted curve in either direction with a large enough effect, not every such curve was filed as active; inconclusive = small, poorly fitted or top-dose-only effect, or another doubt; also: top concentration of the series differs between compounds; % is scaled to controls: 0 for no effect and ±100 for the full control effect); details: ME-180 AP-1-bla reporter, EGF-induced, beta-lactamase ratio, 5 h; at 17.2 µM (top of the series) unless noted
Summary of the method: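 ME-180 cells with beta-lactamase reporter under AP-1 response element, stimulated with EC50 EGF; compounds tested in titration series, 5 h at 37 °C. CCF4 substrate added 2.5 h at room temperature; 460/530 nm emission ratio gave %activity and AC50.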

[5] = NFAT Signaling Pathway (AID 444; active = well fitted curve in either direction with a large enough effect, not every such curve was filed as active; inconclusive = small, poorly fitted or top-dose-only effect, or another doubt;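 also: carbachol stimulus at about its EC50 of 1 µM final; % is scaled to controls: 0 for no effect and ±100 for the full control effect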); details: Jurkat NFAT-bla M1, carbachol, beta-lactamase ratio, 5 h; at 17.2 µM (top of the series) unless noted
Summary of the method: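 Jurkat cells with NFAT-driven β-lactamase reporter and co-expressed M1 receptor, stimulated with carbachol (final 1 uM, ~EC50), compound titration, 5 h at 37 °C. CCF4 loaded 1 h at RT; 460/530 nm ratio gave %activity and AC50.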

[6] = qHTS Assay for Identification of Small Molecule Agonists for Hypoxia Response Element Signaling Pathway (AID 914; active = well fitted activation curve with a large enough effect in the signal ratio, with a control signal flat, not every such curve was filed as active; inconclusive = small, poorly fitted or top-dose-only effect, or effect the other way, or a change in a side signal; the % refers to the signal ratio; also: top concentration of the series differs between compounds; % of control where 0% means no effect); details: ME-180 (cervical carcinoma) HRE-bla reporter, beta-lactamase ratio, CoCl2, 17 h; activation: hits give high values
Summary of the method: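 Reporter activity (beta-lactamase, CCF4 460nm/530nm ratio) in HRE-bla ME-180 cells is recorded after 17 h compound exposure with EC50 CoCl2 at 37 degrees Celsius. AC50 values come from titration data.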
Tags tell the direction and shape of the fitted curve.

SMILES	Potency [1]	Potency [2]	Potency [3]	activity change, negative = inhibition [4]	activity change, negative = inhibition [5]	activation [6]
CN(C)c1ccc(/C=C/C(=O)c2ccc3c(c2)OCO3)cc1	active: 112 µM	active: 112 µM	active: 79.4 µM			
CCOC(=O)c1cc(C)sc1NC(=O)CSC1=NCCS1	inconclusive [activator, partial curve, poor fit]	inconclusive [activator, partial curve, poor fit]	inconclusive [activator, partial curve, poor fit]			
O=c1oc2c3c4c(cc2c(C(F)(F)F)c1CCN1CCOCC1)CCCN4CCC3	inconclusive [activator, partial curve, poor fit]	active: 100 µM	active: 17.8 µM	inconclusive: -50.5% [inhibitor]	inconclusive: -95.8% [inhibitor]	inconclusive: -34.1%
CC(C)CC1=NN2C(=N)/C(=C\c3coc4ccccc4c3=O)C(=O)N=C2S1	inconclusive [activator, partial curve, poor fit]	inconclusive [activator, single point]	active: 12.6 µM			
Nc1ccc(-c2c3ccc(=O)cc-3oc3cc(O)ccc23)cc1C(=O)O	active: 50.1 µM	active: 100 µM	active: 50.1 µM			
CCN(CC)c1ccc(C=C2SC(=S)NC2=O)cc1	inconclusive [activator, partial curve]	inconclusive [activator, single point]	inconclusive [activator, full curve, poor fit]			

From PubChem BioAssay (NCATS)
